{"source": "PubChem BioAssay AID504333", "about": "(National Center for Advancing Translational Sciences (NCATS), 2011)", "note": "Out of some 360,000 compounds screened, about 16,000 (4.4%) were called active. This list was built around the results that the source calls inconclusive (neither active nor inactive); the mix of calls is not that of the screen. Calls come from the whole dose curve; as a rule, active = well fitted inhibition curve with a large enough effect; inconclusive = small, poorly fitted or top-dose-only effect; inactive = no such curve, though single readings can be large or run the other way. Where the call is inconclusive, the potency comes from a doubtful curve fit. Potency is the fitted concentration of half-maximal effect; tags give direction and shape of the fitted curve.", "data": [{"molecular_target": "Bromodomain adjacent to zinc finger domain protein 2B (Homo sapiens) (UniProt Q9UIF8)", "sequence (Q9UIF8 whole entry, looked up, the tested form may be a part)": "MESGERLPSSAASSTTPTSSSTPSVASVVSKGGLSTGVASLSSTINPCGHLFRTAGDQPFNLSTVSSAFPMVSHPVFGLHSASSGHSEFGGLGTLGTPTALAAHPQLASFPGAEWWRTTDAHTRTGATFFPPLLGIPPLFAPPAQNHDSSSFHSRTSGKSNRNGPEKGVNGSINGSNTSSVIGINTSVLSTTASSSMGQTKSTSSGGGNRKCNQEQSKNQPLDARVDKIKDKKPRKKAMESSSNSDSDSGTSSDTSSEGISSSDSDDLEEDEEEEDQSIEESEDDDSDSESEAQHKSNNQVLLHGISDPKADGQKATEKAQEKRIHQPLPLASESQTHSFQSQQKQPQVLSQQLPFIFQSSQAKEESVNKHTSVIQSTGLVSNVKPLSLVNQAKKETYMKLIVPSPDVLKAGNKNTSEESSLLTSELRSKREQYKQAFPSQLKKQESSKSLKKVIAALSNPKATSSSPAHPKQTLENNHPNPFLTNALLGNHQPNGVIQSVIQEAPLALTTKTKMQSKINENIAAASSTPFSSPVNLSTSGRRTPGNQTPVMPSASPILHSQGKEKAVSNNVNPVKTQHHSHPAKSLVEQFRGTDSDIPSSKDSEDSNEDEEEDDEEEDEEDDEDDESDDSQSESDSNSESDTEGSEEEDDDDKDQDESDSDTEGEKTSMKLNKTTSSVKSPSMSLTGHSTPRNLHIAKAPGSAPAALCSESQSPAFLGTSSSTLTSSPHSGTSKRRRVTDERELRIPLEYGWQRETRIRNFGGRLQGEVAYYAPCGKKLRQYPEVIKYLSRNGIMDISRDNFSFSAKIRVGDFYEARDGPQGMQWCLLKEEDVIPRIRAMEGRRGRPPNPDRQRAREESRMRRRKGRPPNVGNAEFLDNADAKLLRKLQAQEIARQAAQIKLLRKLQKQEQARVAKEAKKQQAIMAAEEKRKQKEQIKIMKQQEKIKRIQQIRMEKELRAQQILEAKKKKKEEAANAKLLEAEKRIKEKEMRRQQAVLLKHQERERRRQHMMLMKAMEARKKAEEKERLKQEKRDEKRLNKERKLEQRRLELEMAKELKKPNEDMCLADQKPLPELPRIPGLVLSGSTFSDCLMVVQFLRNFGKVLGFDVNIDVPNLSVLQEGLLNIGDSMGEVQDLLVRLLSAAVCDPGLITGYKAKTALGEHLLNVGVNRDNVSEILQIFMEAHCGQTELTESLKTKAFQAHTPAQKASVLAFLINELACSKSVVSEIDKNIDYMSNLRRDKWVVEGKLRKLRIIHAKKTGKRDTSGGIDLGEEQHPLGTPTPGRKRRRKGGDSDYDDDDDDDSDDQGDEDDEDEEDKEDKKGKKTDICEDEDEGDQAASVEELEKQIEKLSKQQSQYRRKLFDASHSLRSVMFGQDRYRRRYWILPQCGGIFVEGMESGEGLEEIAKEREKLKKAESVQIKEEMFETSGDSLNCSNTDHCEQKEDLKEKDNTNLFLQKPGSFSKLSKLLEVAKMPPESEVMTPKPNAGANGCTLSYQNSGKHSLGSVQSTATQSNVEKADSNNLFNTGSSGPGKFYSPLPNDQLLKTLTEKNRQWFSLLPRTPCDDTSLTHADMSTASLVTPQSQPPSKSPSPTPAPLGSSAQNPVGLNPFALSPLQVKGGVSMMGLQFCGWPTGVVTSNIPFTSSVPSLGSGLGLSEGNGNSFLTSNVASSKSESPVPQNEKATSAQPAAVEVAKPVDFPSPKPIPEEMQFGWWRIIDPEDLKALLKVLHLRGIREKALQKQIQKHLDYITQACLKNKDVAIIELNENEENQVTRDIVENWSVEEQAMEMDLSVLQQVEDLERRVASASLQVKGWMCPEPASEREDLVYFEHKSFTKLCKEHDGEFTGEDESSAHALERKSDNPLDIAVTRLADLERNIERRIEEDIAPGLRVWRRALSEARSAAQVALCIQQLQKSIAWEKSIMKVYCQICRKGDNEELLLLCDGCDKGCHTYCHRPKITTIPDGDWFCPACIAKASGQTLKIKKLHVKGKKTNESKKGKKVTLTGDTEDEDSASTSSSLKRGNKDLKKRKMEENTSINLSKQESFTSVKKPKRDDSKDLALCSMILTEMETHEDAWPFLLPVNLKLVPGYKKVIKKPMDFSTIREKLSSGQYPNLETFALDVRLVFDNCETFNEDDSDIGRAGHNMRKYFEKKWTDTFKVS", "assay": "qHTS Assay for Inhibitors of BAZ2B; note: nearly all actives have a fitted effect of over 60% in size", "conditions": "AlphaScreen BAZ2B-H3K14Ac peptide displacement; series mostly up to 114 µM", "in_short": "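Inhibition is scored as reduced AlphaScreen emission. The BAZ2B/b-H3(5-23)K14Ac complex (50 nM each) in PBS pH 7.4, 0.01% Tween-20 meets compound (up to 110 uM) for 30 min at RT before bead addition.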", "values": [{"smiles": "COc1cc(CNC(=O)c2ccc3c(c2)c(C)c(C)n3Cc2cccc(C)c2)cc(OC)c1OC", "Potency": "inconclusive: 20 µM [inhibitor, full curve]"}, {"smiles": "O=c1oc2cc([N+](=O)[O-])ccc2nc1/C=C(\\O)c1cccc(Br)c1", "Potency": "inconclusive: 89.1 µM [inhibitor, single point]"}, {"smiles": "CCOc1cc(CNc2ccc3cn[nH]c3c2)ccc1OC", "Potency": "inconclusive: 89.1 µM [inhibitor, single point]"}, {"smiles": "CCCCn1c(N)c(N(CCOC)C(=O)c2ccc(-c3ccc([N+](=O)[O-])cc3)o2)c(=O)[nH]c1=O", "Potency": "inconclusive: 79.4 µM [inhibitor, single point]"}, {"smiles": "COc1ccc(NC(=O)C(NS(=O)(=O)c2ccc3c(c2)CCCN3C(C)=O)C(C)C)c(OC)c1", "note": "(centres undefined)", "Potency": "active: 56.2 µM"}, {"smiles": "O=C(Cn1ncc2c3ccccc3n(Cc3cccc(Cl)c3)c2c1=O)Nc1ccc(F)cc1F", "Potency": "inconclusive: 79.4 µM [inhibitor, single point]"}, {"smiles": "c1ccc(CN=C2NN=C(c3cc4ccccc4o3)CS2)cc1", "Potency": "inconclusive: 70.8 µM [inhibitor, single point]"}, {"smiles": "COc1ccc(N2CCN(C(=O)C3CCCN(S(=O)(=O)c4c(C)noc4C)C3)CC2)cc1", "note": "(centres undefined)", "Potency": "inconclusive: 89.1 µM [inhibitor, single point]"}, {"smiles": "O=C1NC(=Nc2ccccc2Cl)S/C1=C\\c1cccc([N+](=O)[O-])c1O", "Potency": "active: 11.2 µM"}, {"smiles": "O=C(NNC(=O)c1ccco1)c1ccccc1", "Potency": "inactive"}, {"smiles": "O=C(Cn1ccn(-c2ccc(F)cc2)c(=O)c1=O)Nc1ccc(F)cc1", "Potency": "inactive"}, {"smiles": "COC(=O)c1c(C)[nH]c(C(C)=O)c1C", "Potency": "inconclusive: 89.1 µM [inhibitor, single point]"}, {"smiles": "c1ccc(-c2cc(N3CCOCC3)nc3ccccc23)cc1", "Potency": "active: 50.1 µM"}, {"smiles": "CCN1/C(=C\\C=C(C(C)=O)C(C)=O)Sc2ccccc21", "Potency": "inconclusive: 50.1 µM [inhibitor, partial curve]"}, {"smiles": "Cc1onc(-c2c(F)cccc2Cl)c1C(=O)OCc1cnc(Cl)s1", "Potency": "inactive"}, {"smiles": "CCCN(CCC)c1nc2c(C)cccn2c(=O)c1/C=C1/SC(=S)N(Cc2ccco2)C1=O", "Potency": "inconclusive: 10 µM [inhibitor, full curve]"}, {"smiles": "Cc1ccc(C(C(=O)NC2CCCCC2)N(Cc2ccco2)C(=O)Cc2c[nH]c3ccccc23)o1", "note": "(centres undefined)", "Potency": "inconclusive: 28.2 µM [inhibitor, partial curve]"}, {"smiles": "O=C1C=C(Nc2cccc3cccnc23)c2ccccc2C1=O", "Potency": "active: 56.2 µM"}, {"smiles": "Cc1[nH]n(-c2cccc(Cl)c2)c(=O)c1-c1ccc(Cl)cc1", "Potency": "inconclusive: 89.1 µM [inhibitor, single point]"}, {"smiles": "COc1ccc(N(Cc2cccs2)C(=O)c2ccc(OC)c(Cl)c2)cc1", "Potency": "inactive"}, {"smiles": "O=C(Oc1ccc(/C=N/NC(=O)c2ccco2)cc1)c1ccccc1", "Potency": "inactive"}, {"smiles": "CCN1CCc2c(sc(-n3cccc3)c2C(C)NC(=O)Nc2ccc(Br)cc2)C1", "note": "(centres undefined)", "Potency": "inconclusive: 50.1 µM [inhibitor, partial curve]"}, {"smiles": "Cc1ccc(-c2noc(CSc3nnc(C)n3-c3ccc(C)c(C)c3)n2)cc1", "Potency": "inconclusive: 70.8 µM [inhibitor, single point]"}, {"smiles": "N#C/C(=C\\c1cccnc1)c1ccc([N+](=O)[O-])cc1", "Potency": "inconclusive: 89.1 µM [inhibitor, single point]"}, {"smiles": "CCOc1ccc(C2C(C(=O)c3ccc(C)o3)=C(O)C(=O)N2CCN2CCOCC2)cc1OC", "note": "(centres undefined)", "Potency": "inconclusive: 89.1 µM [inhibitor, single point]"}, {"smiles": "Cc1cccc(Oc2ccc(NC(=O)c3ccccc3C(=O)O)cc2)c1C", "Potency": "inconclusive: 50.1 µM [inhibitor, partial curve]"}, {"smiles": "COc1ccc(C2=Nn3c(nnc3-c3ccccn3)SC2)cc1OC", "Potency": "active: 20 µM"}, {"smiles": "Cc1cc(NC(=O)[C@H](C)NC(=O)c2ccco2)ccc1Br", "Potency": "inconclusive: 89.1 µM [inhibitor, single point]"}, {"smiles": "Fc1cccc2sc(N3CCCC3)nc12", "Potency": "inactive"}, {"smiles": "Cc1cccc(N(C)S(=O)(=O)c2cc3[nH]c(=O)c(=O)[nH]c3cc2C)c1", "Potency": "inactive"}, {"smiles": "COc1cc(O)c(C(CCN2CCOCC2)c2ccc(N(C)C)cc2)c(OC)c1", "note": "(centres undefined)", "Potency": "active: 35.5 µM"}, {"smiles": "CCOc1ccc(N/C=C/C(=O)c2ccccc2)c([N+](=O)[O-])c1", "Potency": "inconclusive: 4.47 µM [inhibitor, full curve]"}, {"smiles": "CCn1c(C(=O)OC)cc2c1ccn2-c1ccc(F)cc1", "Potency": "active: 12.6 µM"}, {"smiles": "CN(C)c1ccc(CNC(=O)C2CCN(Cc3cc4ccccc4n3Cc3ccccc3)CC2)cc1", "Potency": "active: 3.55 µM"}, {"smiles": "Cc1ccc(-c2nnc(NC(=O)C3=COCCO3)o2)c(C)c1", "Potency": "inconclusive: 89.1 µM [inhibitor, single point]"}, {"smiles": "CC(C)OCc1cc(CN2CCN(c3cccc(C(F)(F)F)c3)CC2)c(O)c2ncccc12", "Potency": "active: 25.1 µM"}, {"smiles": "CC1=CC(C)(C)C(C(=O)O)C(C(=O)O)C1", "note": "(centres undefined)", "Potency": "inconclusive: 89.1 µM [inhibitor, single point]"}, {"smiles": "S=C1NC2=C(CCCC2=C2SCCCS2)C(c2ccccc2)N1", "note": "(centres undefined)", "Potency": "inconclusive: 7.94 µM [inhibitor, full curve]"}, {"smiles": "Cc1ccc(-n2c(SCC(=O)NCc3ccco3)nc3nc4c(cc3c2=O)COC(C)(C)C4)cc1", "Potency": "inconclusive: 89.1 µM [inhibitor, single point]"}, {"smiles": "COc1cc2c(cc1OC)n(CC(=O)NC1CCCCCC1)n1c(C)cc(=O)nc21", "Potency": "inactive"}, {"smiles": "COc1cccc2c1cc1c(=O)n(CC(=O)NCc3ccco3)nc(C)n12", "Potency": "inactive"}, {"smiles": "CCCC1=NN2C(=N)/C(=C\\c3ccc(SCc4ccco4)o3)C(=O)N=C2S1", "Potency": "active: 44.7 µM"}, {"smiles": "CCOC(=O)C(=NCC1CCCO1)NNc1cc(Cl)ccc1Cl", "note": "(centres undefined)", "Potency": "inconclusive: 35.5 µM [inhibitor, partial curve]"}, {"smiles": "O=C(CCC(=O)CCN1CCCCC1)CCN1CCCCC1", "Potency": "inactive"}, {"smiles": "Cc1cc(C)c2c(c1)/C(=C/C(=O)c1ccc(Br)s1)C(=O)N2", "Potency": "inconclusive: 22.4 µM [inhibitor, partial curve]"}, {"smiles": "Cc1cc(NC(=O)c2ccccc2)sc1C", "Potency": "inconclusive: 89.1 µM [inhibitor, single point]"}, {"smiles": "Cc1cc(C)c(NC(=O)c2sc3nc4c(cc3c2N)C(=O)CC(C)(C)C4)c(C)c1", "Potency": "inconclusive: 70.8 µM [inhibitor, single point]"}, {"smiles": "Cn1c(-c2ccsc2)c(-c2cccs2)c2cc(Br)ccc21", "Potency": "inconclusive: 89.1 µM [inhibitor, single point]"}, {"smiles": "COc1ccc(C2/C=C\\CN(Cc3ccco3)CC(=O)N2Cc2ccc(F)cc2)cc1", "note": "(centres undefined)", "Potency": "inconclusive: 89.1 µM [inhibitor, single point]"}, {"smiles": "Fc1cccc(CCN2CCNC[C@@H]2CC2CCCCC2)c1", "Potency": "inconclusive: 89.1 µM [inhibitor, single point]"}, {"smiles": "CCOc1ccc(-n2ccnc(SCC(=O)Nc3ccc(OC)cc3OC)c2=O)cc1", "Potency": "inconclusive: 79.4 µM [inhibitor, single point]"}, {"smiles": "COc1ccc(OC)c(CCNC(=O)CS(=O)(=O)Cc2nc(-c3ccc(C)cc3)oc2C)c1", "Potency": "inconclusive: 89.1 µM [inhibitor, single point]"}, {"smiles": "O=C(NCc1ccccn1)c1ccc(OC2CCN(Cc3ccc(Cl)s3)CC2)cc1", "Potency": "inconclusive: 39.8 µM [inhibitor, partial curve]"}, {"smiles": "CCOc1ccccc1NC(=O)C1CCCN1S(=O)(=O)c1ccc2nc(-c3ccccc3)[nH]c2c1", "note": "(centres undefined)", "Potency": "inconclusive: 79.4 µM [inhibitor, single point]"}, {"smiles": "Cc1ccc(C(=O)Nc2nnc(-c3ccncc3)o2)cc1", "Potency": "active: 56.2 µM"}, {"smiles": "O=C(Cc1ccc(F)cc1)OCN1C(=O)c2ccccc2C1=O", "Potency": "active: 79.4 µM"}, {"smiles": "Cc1cc(C)cc(C(=O)NC(CC(N)=O)c2ccc(N3CCC(Cc4ccccc4)CC3)c([N+](=O)[O-])c2)c1", "note": "(centres undefined)", "Potency": "inconclusive: 79.4 µM [inhibitor, single point]"}, {"smiles": "Cc1ccccc1Nc1nc(N)nc(CN(C)Cc2ccccc2Cl)n1", "Potency": "inconclusive: 44.7 µM [inhibitor, partial curve]"}, {"smiles": "COC(=O)c1ccc(NC(=O)CSc2nc(C)cc(=O)[nH]2)cc1", "Potency": "inconclusive: 89.1 µM [inhibitor, single point]"}, {"smiles": "CCOC(=O)N1CCC(N2CCN(S(=O)(=O)c3ccc4ccccc4c3)CC2)CC1", "Potency": "inconclusive: 70.8 µM [inhibitor, single point]"}, {"smiles": "CCOc1ccccc1CNC(=O)Cn1nc(N2CCN(c3ccccc3)CC2)ccc1=O", "Potency": "inconclusive: 70.8 µM [inhibitor, single point]"}, {"smiles": "Cc1cccc(NC(=S)NNC(=O)c2cccc([N+](=O)[O-])c2)c1", "Potency": "inconclusive: 79.4 µM [inhibitor, single point]"}, {"smiles": "COc1cccc(CN2CC(C(=O)NCc3cccc(N4CCCC4)c3)CCC2=O)c1", "note": "(centres undefined)", "Potency": "inconclusive: 50.1 µM [inhibitor, partial curve]"}, {"smiles": "COc1ccc(S(=O)(=O)NCCC(=O)OCC(=O)c2ccc[nH]2)cc1[N+](=O)[O-]", "Potency": "inconclusive: 79.4 µM [inhibitor, single point]"}, {"smiles": "CN(CC(=O)Nc1ccc(N2CCOCC2)cc1)C(=O)c1cn(-c2ccccc2)nc1-c1ccccc1", "Potency": "inactive"}, {"smiles": "CCc1ccc(NC(=O)C2=CC(c3cccs3)=NS(=O)(=O)N2C)cc1", "Potency": "inconclusive: 11.2 µM [inhibitor, full curve, poor fit]"}, {"smiles": "O=C(NC1CCCC1)c1ccc2nc[nH]c2c1", "Potency": "inactive"}, {"smiles": "COc1ccc(CN(C)CC(O)COc2ccc(-c3ccccc3)cc2)cc1OC", "note": "(centres undefined)", "Potency": "active: 79.4 µM"}, {"smiles": "O=C(NCCCn1ccnc1)C(=O)NCC1OCCN1S(=O)(=O)c1ccc2c(c1)OCCO2", "note": "(centres undefined)", "Potency": "active: 39.8 µM"}]}]}
